Assay results as given in paper PMC4081100.
The entries are a selection whose mix differs from that of the whole data set. For some assays here: At the low end of the ranking the order means little. The list shows a part of the results. For some assays here: Construct or isoform of the protein are uncertain.

Columns and labels:
Assay in all cases: universal protein binding microarray (PBM)
Details in all cases: transcription factors of Arabidopsis thaliana; high values mean tight binding; most listed sequences are background and not binding sites; double strand, one strand shown
GST-NTL6(1-168) = GST-NTL6(1-168) (UniProt Q9SCK6)
GST-NAP(1-166) = target: T1, GST-NAP(1-166) (UniProt O49255)
T1 sequence: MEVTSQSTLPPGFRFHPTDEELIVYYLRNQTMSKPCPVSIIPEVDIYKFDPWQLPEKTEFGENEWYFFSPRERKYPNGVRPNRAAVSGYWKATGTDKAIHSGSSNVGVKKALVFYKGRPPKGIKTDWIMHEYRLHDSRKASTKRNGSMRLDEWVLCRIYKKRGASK

GST-NTL8 NAC domain = target: T2, GST-NTL8 NAC domain (UniProt Q9XIN7)
T2 sequence: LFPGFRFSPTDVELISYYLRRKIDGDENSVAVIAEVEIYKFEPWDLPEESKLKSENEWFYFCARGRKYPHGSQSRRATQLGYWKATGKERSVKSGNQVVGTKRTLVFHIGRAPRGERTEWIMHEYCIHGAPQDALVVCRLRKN

[1] = target: T3, GST-VOZ2 (Arabidopsis thaliana) (UniProt Q9SLB9)
T3 sequence: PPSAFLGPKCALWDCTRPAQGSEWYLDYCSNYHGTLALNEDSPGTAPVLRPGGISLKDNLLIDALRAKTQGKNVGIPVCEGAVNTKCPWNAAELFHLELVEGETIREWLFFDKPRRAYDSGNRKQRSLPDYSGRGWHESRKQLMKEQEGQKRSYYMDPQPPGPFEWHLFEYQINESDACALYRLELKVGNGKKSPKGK

GST-WRKY1(266-371) = GST-WRKY1(266-371) (UniProt Q9SI37)
GST-ANAC019 NAC domain = target: T4, GST-ANAC019 NAC domain (UniProt Q9C932)
T4 sequence: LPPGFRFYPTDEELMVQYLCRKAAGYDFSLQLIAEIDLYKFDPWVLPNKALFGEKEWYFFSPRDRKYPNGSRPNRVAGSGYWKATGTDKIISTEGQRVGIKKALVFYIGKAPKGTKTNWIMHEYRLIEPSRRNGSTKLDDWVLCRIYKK

GST-NST2(1-184) = target: T5, GST-NST2(1-184) (UniProt Q9M274)
T5 sequence: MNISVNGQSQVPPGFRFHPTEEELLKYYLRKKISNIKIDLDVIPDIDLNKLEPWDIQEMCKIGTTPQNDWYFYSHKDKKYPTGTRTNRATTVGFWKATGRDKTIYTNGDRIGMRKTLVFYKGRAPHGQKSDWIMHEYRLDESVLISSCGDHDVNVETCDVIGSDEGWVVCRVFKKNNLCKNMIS

GST-ATAF1 NAC domain = target: T6, GST-ATAF1 NAC domain (UniProt Q39013)
T6 sequence: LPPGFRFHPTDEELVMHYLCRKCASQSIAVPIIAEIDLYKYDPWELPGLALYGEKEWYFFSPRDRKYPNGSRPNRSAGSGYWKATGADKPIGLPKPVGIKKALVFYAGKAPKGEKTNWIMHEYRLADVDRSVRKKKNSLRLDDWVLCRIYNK

GST-ANAC055(1-171) = target: T7, GST-ANAC055(1-171) (UniProt Q9LDY8)
T7 sequence: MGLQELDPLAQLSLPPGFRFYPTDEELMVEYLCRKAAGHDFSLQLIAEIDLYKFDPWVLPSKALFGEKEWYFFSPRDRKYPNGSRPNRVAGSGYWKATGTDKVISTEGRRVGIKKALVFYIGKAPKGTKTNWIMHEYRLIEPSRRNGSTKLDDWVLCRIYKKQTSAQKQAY

[2] = target: T8, GST-ANAC092(1-285) full length (UniProt Q9FKA0)
T8 sequence: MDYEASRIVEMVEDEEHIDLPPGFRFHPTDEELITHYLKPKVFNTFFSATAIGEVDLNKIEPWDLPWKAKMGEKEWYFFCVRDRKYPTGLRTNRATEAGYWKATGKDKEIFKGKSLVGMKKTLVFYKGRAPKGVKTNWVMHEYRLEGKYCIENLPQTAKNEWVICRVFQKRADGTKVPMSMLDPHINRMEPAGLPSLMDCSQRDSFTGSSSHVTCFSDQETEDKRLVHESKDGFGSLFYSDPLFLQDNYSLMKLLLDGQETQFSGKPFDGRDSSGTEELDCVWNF

Chain of UniProt Q9SI37 (Q9SI37 266-371): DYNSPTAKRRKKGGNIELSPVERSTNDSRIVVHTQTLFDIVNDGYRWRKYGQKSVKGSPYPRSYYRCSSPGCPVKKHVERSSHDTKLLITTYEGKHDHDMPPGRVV

| Sequence | binding signal (GST-NTL6(1-168)) [E-score] | binding signal (GST-NAP(1-166)) [E-score] | binding signal (GST-NTL8 NAC domain) [E-score] | binding signal [1] [E-score] | binding signal (GST-WRKY1(266-371)) [E-score] | binding signal (GST-ANAC019 NAC domain) [E-score] | binding signal (GST-NST2(1-184)) [E-score] | binding signal (GST-ATAF1 NAC domain) [E-score] | binding signal (GST-ANAC055(1-171)) [E-score] | binding signal [2] [E-score] |
| --- | --- | --- | --- | --- | --- | --- | --- | --- | --- | --- |
| CTAACGTA | 0.00293 | 0.173 | -0.00357 | 0.0148 | -0.0123 | – | – | – | – | – |
| AAGCGTAA | – | – | 0.0159 | 0.0143 | -0.08 | 0.168 | 0.212 | – | – | – |
| AAGCAACC | – | -0.171 | 0.301 | 0.101 | -0.159 | 0.0254 | – | – | – | – |
| ACGGCAAC | -0.011 | – | 0.0385 | -0.137 | -0.105 | – | – | 0.288 | – | – |
| ACACGGAA | – | 0.45 | 0.02 | -0.161 | 0.0128 | – | – | – | 0.481 | 0.458 |
| GTTACTTA | – | 0.113 | 0.286 | 0.119 | -0.0173 | 0.0988 | – | 0.256 | – | – |
| AAACGTAA | – | – | – | -0.00646 | 0.0087 | 0.268 | – | 0.296 | – | – |
| ACAAGTCA | 0.0563 | 0.146 | 0.0517 | 0.00717 | – | -0.124 | – | -0.0196 | 0.0275 | – |
| CGTGCACG | 0.00273 | 0.378 | 0.0868 | -0.0907 | – | – | 0.221 | – | – | – |
| GTGACGTA | – | – | -0.0309 | 0.149 | 0.0187 | – | – | – | – | 0.452 |
| GTACGCTA | – | 0.219 | 0.129 | 0.195 | -0.0111 | – | – | – | – | – |
